Reference: ChEMBL document CHEMBL4888484, “Replenishing the malaria drug discovery pipeline: Screening and hit evaluation of the MMV Hit Generation Library 1 (HGL1) against asexual blood stage Plasmodium falciparum ,using a nano luciferase reporter read-out” (2022)
Among all 150,000 compounds or so, about 540 (0.36%) showed an effect of 50% or more. Some of the results follow.

What follows are compounds tested on Plasmodium falciparum (assay: Primary screen in NF54 nanoGlo assay, in single point, at 2uM, 72h; a lower Z score goes with more inhibition). Conditions: timepoint 72 hour.
Type: functional, Erythrocyte
For `O=C(COc1cccc(Cl)c1)N1CCC2(CC1)OCCO2`, the “% Inhibition” value was -5% and the Z score was 0.77. For `CC(C)NC(=O)c1cc(N2CCN3CCC[C@H]3C2)ccn1`, the “% Inhibition” value was -3% and the Z score was 0.6. In the case of `COC1CC2CCC(C1)N2Cc1cnoc1C` (centres undefined), the “% Inhibition” value is reported as 9% and the Z score is reported as -1.27. In the case of `Brc1cncc(CNC23CCCCC2C3)c1` (centres undefined), the “% Inhibition” value is reported as -7% and the Z score is reported as 1.14. `Cn1c(=O)oc2c(C(=O)Nc3cccnc3-c3ccccc3)cccc21` was tested, and the “% Inhibition” value was -10% and the Z score was 1.87. `COc1ccccc1CCCNC(=O)N1CCN([C@H]2CN3CCC2CC3)CC1` was tested, and the “% Inhibition” value was -15% and the Z score was 1.98. For `c1csc(O[C@H]2CN3CCC2CC3)n1`, the “% Inhibition” value was -1% and the Z score was 0.1. For `O=c1c2c([nH]c3c(F)ccc(F)c13)CCNC2`, the “% Inhibition” value was 6% and the Z score was -1.16. For `O=c1[nH]c2ccccc2cc1CN1CCO[C@H]2COCC[C@H]21`, the “% Inhibition” value was -8% and the Z score was 1.36. With `COCCCN1CC2CCC1CN2CCCOC` the “% Inhibition” value was 6% and the Z score was -0.65. In the case of `Cc1cccc(OCC(=O)N2C[C@H]3COc4ccccc4C[C@@]3(C(=O)O)C2)c1`, the “% Inhibition” value is reported as -6% and the Z score is reported as 0.75. With `NC(=O)c1ccc(N2C(=O)NC(=O)C3(Cc4ccccc4N4CCOCC43)C2=O)cc1` (centres undefined) the “% Inhibition” value was -44% and the Z score was 5.18. For `C[C@@H](Cc1cnccn1)N(C)Cc1ccc(-c2nn[nH]n2)cc1`, the “% Inhibition” value was -12% and the Z score was 2.02. `CN(C)c1ccc(-c2noc([C@@]34CCCC[C@@H]3NCC4)n2)nc1` was tested, and the “% Inhibition” value was -9% and the Z score was 1.83. `CCNC(=O)N1CC2CN(C(C)C)CC(C1)O2` was tested, and the “% Inhibition” value was -7% and the Z score was 0.9. `Cc1nc(-c2ccccc2)cc([C@H]2CN3CC[C@H]2C[C@@H]3CNC2CCN(C)CC2)n1` was tested, and the “% Inhibition” value was 18% and the Z score was -2.89. `N#Cc1cnc(O[C@H]2CN3CCC2CC3)c(Cl)c1` was tested, and the “% Inhibition” value was 5% and the Z score was -0.7. With `FC(F)(F)C1CCCC(NCC2COC3(CCOCC3)O2)C1` (centres undefined) the “% Inhibition” value was -11% and the Z score was 1.45. With `COc1ccccc1[C@@H]1CN(c2ncnc3[nH]cnc23)[C@@H]2C3CCN(CC3)[C@@H]21` the “% Inhibition” value was -4% and the Z score was 0.75. `COCCCNC(=O)c1c(CC2CCCC2)n(Cc2cccnc2)c(C)cc1=O` was tested, and the “% Inhibition” value was 7% and the Z score was -1.26. In the case of `Cc1cc(C)nc(O[C@H]2CN3CCC2CC3)n1`, the “% Inhibition” value is reported as -7% and the Z score is reported as 0.99. With `Fc1ccc(N2CCC[C@H]2c2cccnc2)nc1` the “% Inhibition” value was 3% and the Z score was -0.62. For `CC1(C)C[C@@H]2C[C@@](C)(CN2Cc2cnc(NCC(=O)O)nc2)C1`, the “% Inhibition” value was -7% and the Z score was 0.68. In the case of `O=C(Cc1c(F)cccc1Cl)NCC1CCN(C(=O)Oc2ccccc2)CC1`, the “% Inhibition” value is reported as -6% and the Z score is reported as 0.98. With `O=C1CCN(Cc2cnc3ccccc3c2)[C@H]2CCCN12` the “% Inhibition” value was 18% and the Z score was -2.23. In the case of `Cc1nc2c(c(N3C[C@@H]4C[C@@H](C3)c3cccc(=O)n3C4)n1)CNC2`, the “% Inhibition” value is reported as -7% and the Z score is reported as 0.84. For `COCCn1nnnc1[C@]1(N2CCOCC2)CCCN(C(=O)Cc2ccccc2Cl)C1`, the “% Inhibition” value was 7% and the Z score was -1.25. `C[C@@H](Cc1cnccn1)N(C)Cc1ccc(Cl)o1` was tested, and the “% Inhibition” value was -5% and the Z score was 0.87. In the case of `CCc1nccc(CN2CCC[C@H](C(=O)c3ccccn3)C2)n1`, the “% Inhibition” value is reported as -13% and the Z score is reported as 1.32. With `CC(C)NC(=O)OC[C@H]1C[C@@H]2CCN1C[C@@H]2c1cc(C2CCCC2)nc(-c2ccncc2)n1` the “% Inhibition” value was 32% and the Z score was -3.72. `CN(Cc1ccccc1)C[C@H]1C[N@@]2CC[C@H]1C[C@@H]2CNC(=O)c1ccccc1` was tested, and the “% Inhibition” value was 11% and the Z score was -1.99. For `O=C1NC2(CCNCC2)N=C1c1cccs1`, the “% Inhibition” value was -15% and the Z score was 1.8. `Cc1n[nH]c(C)c1CC(=O)N1CCN(CC(=O)C2CC2)CC1` was tested, and the “% Inhibition” value was -10% and the Z score was 1.03. With `O=c1oc2ccccc2n1CN1CCC[C@H](c2nc3ccccc3s2)C1` the “% Inhibition” value was 0% and the Z score was 0.02. For `O=C(Cc1c[nH]c2ccccc12)N1CCN(Cc2nnn3c2CO[C@H](c2cccc(F)c2)C3)CC1`, the “% Inhibition” value was -6% and the Z score was 0.79. For `O=c1cccc2n1C[C@@H]1C[C@H]2CN(O)C1`, the “% Inhibition” value was -9% and the Z score was 0.81. For `O=C(NC1CCN2CCCCC12)c1cc(Cl)c[nH]1` (centres undefined), the “% Inhibition” value was 8% and the Z score was -1.17. `C[C@H](O)CN1CCN(C(=O)Cc2ccoc2)CC1` was tested, and the “% Inhibition” value was -13% and the Z score was 1.41. In the case of `CC(=O)Nc1ccc(Cc2nc(-c3ccc4c(c3)oc(=O)n4C(C)C)no2)cc1`, the “% Inhibition” value is reported as -10% and the Z score is reported as 0.99. In the case of `Nc1nccc(N2C[C@H](c3ccccc3)[C@@H]3[C@H]2C2CCN3CC2)n1`, the “% Inhibition” value is reported as 3% and the Z score is reported as -0.48. With `CCN1C[C@]2(OC(=O)c3ccccc3N)CC[C@H](OC)[C@]34C1[C@H](C[C@H]23)[C@@]1(O)C[C@H](OC)[C@H]2C[C@@H]4[C@]1(O)[C@H]2OC` the “% Inhibition” value was -2% and the Z score was 0.2. `CC(C)c1nc(C2CCN(C(=O)c3cccc4[nH]c(=O)oc34)CC2)no1` was tested, and the “% Inhibition” value was 6% and the Z score was -1.02. For `O=C(NCc1ccccc1)[C@H]1CN2CC[C@H]1C[C@@H]2Cn1cc(CO)nn1`, the “% Inhibition” value was 31% and the Z score was -3.52. In the case of `Cc1ccc(OCc2c(C(=O)N[C@@H](C)c3nccs3)c(=O)cc(C)n2CCN2CCOCC2)cc1`, the “% Inhibition” value is reported as -9% and the Z score is reported as 0.99. With `Cc1cccc(CN(Cc2ccccc2)C(=O)N[C@H]2CN3CCC2CC3)n1` the “% Inhibition” value was -5% and the Z score was 0.58. For `CC(C)(C)OC(=O)NC1CCC2CN(Cc3cccnc3)CC21` (centres undefined), the “% Inhibition” value was -6% and the Z score was 1.11. For `CN1C2CCC1CC(Oc1ncc(Br)cn1)C2` (centres undefined), the “% Inhibition” value was -6% and the Z score was 0.87. `CCC(CC)c1cc([C@H]2CN3CC[C@H]2C[C@@H]3CNC(=O)CCCC(=O)O)nc(-c2ccncc2)n1` was tested, and the “% Inhibition” value was 3% and the Z score was -0.52. In the case of `C[C@H](NCCc1cccc(F)c1)c1cn2ccccc2n1`, the “% Inhibition” value is reported as -10% and the Z score is reported as 1.14. With `Cc1nc(CC(=O)N(CCN2CCCC2)Cc2ccccc2)cs1` the “% Inhibition” value was 3% and the Z score was -0.39. `Cc1cccc(CN(C(=O)c2ccn(C(C)C)n2)C2CCCCC2)c1` was tested, and the “% Inhibition” value was -12% and the Z score was 1.3. `O=C(NC1CC1)[C@H](Nc1ccc2oc(=O)[nH]c2c1)c1ccccc1` was tested, and the “% Inhibition” value was 1% and the Z score was -0.13.
